Measurements taken from paper PMC7819943, “Rice protein-binding microarrays: a tool to detect cis-acting elements near promoter regions in rice”.
Some of the results follow.

What follows are sequences tested against T1, OsWOX13 (Oryza sativa, UniProt Q5QMM3 1-267) (assay: protein-binding microarray (RPBM); PBS, 2% BSA, 51.3 ng/ul salmon testes DNA, 50 uM zinc acetate, 200 nM TF, 25 C, 1 h; high values mean tight binding). Details: protein: recombinant; tags: N-terminal polyhistidine and DsRed monomer fusion (pET32a); label: CyDye5-dUTP incorporated in the synthesized complementary strand; 3' TTTTT single-stranded linker to array surface; dsDNA, one strand shown.
T1 sequence: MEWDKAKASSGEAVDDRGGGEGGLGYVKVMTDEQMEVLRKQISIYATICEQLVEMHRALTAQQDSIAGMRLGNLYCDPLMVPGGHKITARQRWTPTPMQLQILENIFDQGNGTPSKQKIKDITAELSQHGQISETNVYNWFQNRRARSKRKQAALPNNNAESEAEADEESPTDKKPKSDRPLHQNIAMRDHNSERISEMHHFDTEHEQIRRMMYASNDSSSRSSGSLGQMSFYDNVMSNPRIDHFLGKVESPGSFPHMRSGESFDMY
Outline: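 Binding signal is reported as fluorescence intensity per feature (arbitrary units) from an Axon 4000B scanner. Incubation used 200 nM of each Ni–NTA-purified, N-terminally polyhistidine- and DsRed-fused transcription factor from E. coli BL21-CodonPlus on a double-stranded custom Agilent array for 1 h at 25 °C, with 50 µM zinc acetate in the buffer, followed by washing.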

| Sequence | binding signal |
| --- | --- |
| GGTGATTTGATTCAAATTCAATCCGATCCTTTGTTGGTTTCGGAGTCACCTAGTGCAG | 53400 fluorescence intensity (a.u.) |
| GGTTGATTGGATTGGTGGAGCAAAACAGGTTGTGTATGGACGGAGTCACCTAGTGCAG | 51700 fluorescence intensity (a.u.) |
| TTGTTGATTGCACTTGCATGAACTGCACAAAGTTATTACACGGAGTCACCTAGTGCAG | 24200 fluorescence intensity (a.u.) |
| TATCAATTAATACATCAGTTTTGATAACCATTCAGATTTTCGGAGTCACCTAGTGCAG | 11900 fluorescence intensity (a.u.) |
| AAAGTTATTTATATTTAATTAAGTTTGTAGGAAAATATAGCGGAGTCACCTAGTGCAG | 3710 fluorescence intensity (a.u.) |
| ATATAAATTTGGAACAAATTCAACATCATGTTATCCTAGGCGGAGTCACCTAGTGCAG | 4060 fluorescence intensity (a.u.) |
| TTCAAATTCAAGATTGACACAGGTGCTTGCATTTACGGCTCGGAGTCACCTAGTGCAG | 16400 fluorescence intensity (a.u.) |
| AAGTAATTATTAATTCTTTTCCTATCATCTGATTCATTGTCGGAGTCACCTAGTGCAG | 24600 fluorescence intensity (a.u.) |
| ATAAAATTCTTTTATAATTAGTATTTTCATTGTTGTTAGACGGAGTCACCTAGTGCAG | 5460 fluorescence intensity (a.u.) |
| ATCCAGATTATTCACTTGATTACAGAGATAAACTAAATATCGGAGTCACCTAGTGCAG | 4610 fluorescence intensity (a.u.) |
| TGAATTGACGCATGATAAATAAATACGCCGATCGATTGTACGGAGTCACCTAGTGCAG | 5880 fluorescence intensity (a.u.) |
| TTGTATCGGAGTTGATTCTTGATTGGATTGAATTTTGTTCCGGAGTCACCTAGTGCAG | 7580 fluorescence intensity (a.u.) |
| GTAAATTACACAAATTTTGAGTGCTGTGTAACAAATTTTGCGGAGTCACCTAGTGCAG | 28500 fluorescence intensity (a.u.) |
| ATGATTTGTTGTTGAGTTCGGTTTGAAATCAATATAAGTACGGAGTCACCTAGTGCAG | 14700 fluorescence intensity (a.u.) |
| GAATTTCAATTATATGTAAATTTTATATGTATTTCTATATCGGAGTCACCTAGTGCAG | 3710 fluorescence intensity (a.u.) |
| CATAGTTAATGATTTCTTATATAGTTACTAAAATTTGGCACGGAGTCACCTAGTGCAG | 7350 fluorescence intensity (a.u.) |
| TTCATAATTAATAAATAACTTGCCATACCGCATCCTCCTTCGGAGTCACCTAGTGCAG | 33600 fluorescence intensity (a.u.) |
| CCAAAATTTTGGTAACTTTAATAGTAAACATGCTAGTTTGCGGAGTCACCTAGTGCAG | 6870 fluorescence intensity (a.u.) |
| CCCCAAATCCCACTCCAATCACCACCGCTTCTTCTCCTCCCGGAGTCACCTAGTGCAG | 6580 fluorescence intensity (a.u.) |
| AAGTGTCGTTACAGTGCTTGATTGGGCTATCAGGAGCGACCGGAGTCACCTAGTGCAG | 18600 fluorescence intensity (a.u.) |
| TAAGAGTGTAATTAATTAGCTGAGATTATTCATGAGCTGACGGAGTCACCTAGTGCAG | 29900 fluorescence intensity (a.u.) |
| TTATCTAATTGTTGTCAGAAAGTTTAAAGGTAACATGTTCCGGAGTCACCTAGTGCAG | 12000 fluorescence intensity (a.u.) |
| TAGTTAAATTTCCATTTAACTAGGGATAAATTAAATGGCTCGGAGTCACCTAGTGCAG | 20200 fluorescence intensity (a.u.) |
